In the antibiotic and cytotoxicity screens of Wong et al. (2023):
Some of the results follow.

Tests used:
[1] = tested on: HSkMC (human skeletal muscle cells); assay: cytotoxicity call (relative viability < 0.9); details: 10 µM
[2] = tested on: HepG2; assay: cytotoxicity call (relative viability < 0.9); details: 10 µM
[3] = tested on: S. aureus RN4220; assay: growth inhibition call (relative growth <= 0.2); details: 50 µM

SMILES | cytotoxicity call [1] | cytotoxicity call [2] | growth inhibition call [3]
C[C@H]1CCCCO[C@H](CN(C)CC2CCCCC2)[C@@H](C)CN([C@@H](C)CO)C(=O)c2cc(NS(=O)(=O)c3cccs3)ccc2O1 | inactive | inactive | inactive
O=S1(=O)CC[C@H](S(=O)(=O)[C@H]2CCS(=O)(=O)C2)C1 | inactive | inactive | inactive
COc1cccc(CNC(=O)C[C@H]2C=C[C@@H](NC(=O)C3CCOCC3)[C@H](CO)O2)c1 | inactive | inactive | inactive
COc1ccc2c3c(n(c2c1)C)[C@@H](CO)N(C[C@]13CCN(CC1)Cc1ccncc1)C(=O)CN1CCOCC1 | inactive | inactive | inactive
CC(C)N1C[C@H](C)[C@@H](CN(C)Cc2ccccc2Cl)Oc2c(NC(=O)c3ccncc3)cccc2C1=O | inactive | inactive | inactive
CC(C)C#Cc1ccc2c(c1)O[C@H](CN(C)C(=O)Cc1ccccn1)[C@@H](C)CN([C@@H](C)CO)S2(=O)=O | inactive | inactive | inactive
C[C@@H]1CN([C@H](C)CO)S(=O)(=O)c2ccc(C#Cc3ccccc3)cc2O[C@H]1CN(C)C(=O)CN(C)C | inactive | active | inactive
CC(C)(O)C#Cc1ccc([C@H]2[C@@H](CO)N3CCCCN(S(C)(=O)=O)C[C@H]23)cc1 | inactive | inactive | inactive
CO[C@@H]1CN(C)C(=O)c2cc(NS(C)(=O)=O)ccc2OC[C@@H](C)N(S(C)(=O)=O)C[C@@H]1C | inactive | inactive | inactive
CCc1nc2ccc(C(=O)Nc3cccc(OCC(=O)N(C)C)c3)cn2c1N(CCN(C)C)CC1CC1 | inactive | inactive | inactive
C[C@H]1CN([C@@H](C)CO)C(=O)c2cc(NC(=O)CCCN(C)C)ccc2O[C@H]1CN(C)S(=O)(=O)c1ccc(Cl)cc1 | inactive | inactive | inactive
CC(C)(C)[S@](=O)N1Cc2cc(C(=O)N[C@H]3CCN(Cc4ccccc4)C3)nc(-c3cccc(-c4cccnc4)c3)c2[C@@H]1CCO | inactive | inactive | inactive
Cc1noc(C)c1NC(=O)N(C)C[C@@H]1Oc2ncc(Br)cc2C(=O)N([C@@H](C)CO)C[C@@H]1C | inactive | inactive | inactive
Cc1ccc(S(=O)(=O)N(C)C[C@H]2Oc3c(NC(=O)NC(C)C)cccc3C(=O)N([C@H](C)CO)C[C@@H]2C)cc1 | inactive | inactive | inactive
COC(=O)C(CC#Cc1ccc2c(c1)[C@]1(C(=O)N2)[C@H](c2ccccc2OCCO)N2[C@H](c3ccccc3)[C@H](c3ccccc3)OC(=O)[C@H]2[C@@H]1C(=O)Nc1nc2ccccc2s1)C(=O)OC | inactive | inactive | inactive
Cc1ccc(S(=O)(=O)N(C)C[C@@H]2OCCCC[C@H](C)Oc3ccc(NC(=O)Nc4ccc5c(c4)OCO5)cc3C(=O)N([C@@H](C)CO)C[C@H]2C)cc1 | inactive | inactive | inactive
COCC#Cc1ccc2c(c1)O[C@H](CN(C)C(=O)c1ccccc1F)[C@@H](C)CN([C@H](C)CO)S2(=O)=O | inactive | inactive | inactive
CCS(=O)(=O)Nc1ccc2c(c1)C(=O)N(C)[C@H]1CC[C@H](CC(=O)NCc3ccccc3F)O[C@@H]1CO2 | inactive | inactive | inactive
COc1ccc(S(=O)(=O)N(C)C[C@H]2OCCCC[C@@H](C)Oc3ccc(NC(=O)CCC(F)(F)F)cc3C(=O)N([C@@H](C)CO)C[C@@H]2C)cc1 | inactive | inactive | inactive
C[C@@H]1CN([C@H](C)CO)C(=O)c2cc(NC(=O)Nc3ccccc3)ccc2O[C@@H](C)CCCCO[C@H]1CN(C)Cc1ccccc1 | inactive | active | inactive
COc1ccc(NC(=O)CSC2=NC(C)=C(C(=O)Nc3nc4ccccc4s3)[C@H](c3ccco3)C2C#N)cc1 (stereo not given in full) | inactive | inactive | inactive
N=C(N)NC(=O)c1nc(Cl)c(N)nc1N | inactive | inactive | inactive
COc1ccc(S(=O)(=O)N(C)C[C@@H]2Oc3ccc(NS(=O)(=O)c4cccs4)cc3C(=O)N([C@H](C)CO)C[C@@H]2C)cc1 | inactive | active | inactive
C[C@@H]1CCCCO[C@@H](CN(C)C(=O)Nc2ccc(F)cc2)[C@H](C)CN([C@@H](C)CO)C(=O)c2cc(NS(=O)(=O)c3ccc(Cl)cc3)ccc2O1 | inactive | inactive | inactive
COCC(=O)N1C[C@H](C)[C@@H](OC)CN(C)C(=O)c2ccc(NC(=O)c3ccc(OC)cc3)cc2OC[C@@H]1C | inactive | inactive | inactive
